# Reference: PubChem BioAssay AID588342 (National Center for Advancing Translational Sciences (NCATS), 2011)
# Hit rate of the full screen: of about 360,000 compounds, about 25,000 (6.9%) were called active. The shares of active, inactive and inconclusive entries below differ from those in the screen. Calls come from the whole dose curve; as a rule, active = well fitted inhibition curve with a large enough effect; inconclusive = small, poorly fitted or top-dose-only effect; inactive = flat fitted curve, though single readings scatter. Potencies beside an inconclusive call are fits to weak or partial responses and may not hold up.
# Molecular target: Luciferin 4-monooxygenase (Photinus pyralis) (UniProt P08659)
# UniProt P08659, sequence (P08659 whole entry, looked up): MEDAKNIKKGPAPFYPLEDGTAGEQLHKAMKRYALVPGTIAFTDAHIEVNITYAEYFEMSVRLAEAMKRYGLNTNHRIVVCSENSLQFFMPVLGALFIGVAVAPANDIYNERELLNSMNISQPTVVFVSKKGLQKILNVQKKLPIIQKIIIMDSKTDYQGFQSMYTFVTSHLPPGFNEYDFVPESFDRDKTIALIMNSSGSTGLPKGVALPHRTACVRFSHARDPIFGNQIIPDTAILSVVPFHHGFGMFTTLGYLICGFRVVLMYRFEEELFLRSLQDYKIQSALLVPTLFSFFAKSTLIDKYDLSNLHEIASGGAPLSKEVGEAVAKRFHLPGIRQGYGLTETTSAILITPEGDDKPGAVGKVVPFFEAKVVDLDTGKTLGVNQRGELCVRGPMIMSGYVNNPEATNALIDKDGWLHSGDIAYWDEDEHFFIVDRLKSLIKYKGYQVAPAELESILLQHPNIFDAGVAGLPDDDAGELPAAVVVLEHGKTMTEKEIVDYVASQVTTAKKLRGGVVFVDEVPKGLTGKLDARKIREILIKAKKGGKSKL
# Assay: qHTS profiling assay for firefly luciferase inhibitor/activator using purifed enzyme and Km concentrations of substrates (counterscreen for miR-21 project); note: nearly all actives have a fitted effect of over 55% in size;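 for activity change, negative = inhibition: plate controls were vehicle for no effect and reference inhibitor for full effect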
# Settings: purified FLuc, luminescence inhibition; activity change, negative = inhibition: at 57.5 µM (top of the series)
# In short: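 Purified P. pyralis luciferase, 10 nM final, with Km-level 10 uM D-luciferin and 10 uM ATP in 50 mM Tris acetate pH 7.5, 10 mM Mg acetate, 0.01% Tween-20, 0.05% BSA; 6-point qHTS titration about 60 µM downward; luminescence read.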
# Potency is the fitted concentration of half-maximal effect; tags give direction and shape of the fitted curve.
SMILES,Potency,"activity change, negative = inhibition"
COc1ccccc1C(=O)CSc1nccn1C,"inconclusive: 37.9 µM [inhibitor, partial curve, poor fit]",
N#Cc1ccc(C(=O)Nc2cccc(NC(=O)c3ccco3)c2)c(F)c1,"inconclusive: 42.6 µM [inhibitor, partial curve, poor fit]",
Cc1csc(N/N=C/c2ccc([N+](=O)[O-])cc2)n1,"inconclusive: 2.69 µM [inhibitor, full curve]",
CC(c1nnnn1C(C)(C)C)N(Cc1cccnc1)Cc1ccccc1Cl (centres undefined),"inconclusive: 8.49 µM [inhibitor, partial curve, poor fit]",
COc1ccc(-c2onc3ccc(Br)cc23)cc1,"inconclusive: 23.9 µM [inhibitor, partial curve, poor fit]",
O=C(N/N=C/c1ccoc1)c1ccc(Cl)cc1,"inconclusive: 16.9 µM [inhibitor, partial curve, poor fit]",
O=C(O)c1ccc2nc(CO)[nH]c2c1,"inconclusive: 23.9 µM [inhibitor, single point]",
COc1ccc(/C=N/Nc2snc(SC)c2C#N)cc1OC,active: 2.13 µM,
CCc1ccc(OCC(=O)Nc2ccc(Cl)c(-c3nc4cc(C)cc(C)c4o3)c2)cc1,,inactive: 2.49%
Cc1ccc2c(CC(=O)Nc3cccc(S(=O)(=O)N4CCOCC4)c3)coc2c1,"inconclusive: 37.9 µM [inhibitor, single point]",
Cc1ccc(-c2c[n+](CC(=O)Nc3nc(-c4ccc(F)cc4)cs3)c3n2CCC3)cc1,,inactive: -0.956%
Cc1cccc(NC(=O)CN2C(=O)COc3ccc(S(=O)(=O)Nc4ccccc4)cc32)c1C,,inactive: -9.63%
CC(C)Oc1cccc(C(=O)NC(=S)Nc2ccccc2)c1,active: 2.39 µM,
Cc1[nH]c2ccc(C(=O)NCCc3ccccc3Cl)cc2c1C,"inconclusive: 23.9 µM [inhibitor, single point]",
CCOc1cccc(C2c3c(oc4ccc(F)cc4c3=O)C(=O)N2CCOC)c1 (centres undefined),,inactive: 1.72%
CN(C)c1ccc(NC(=O)/C=C/c2ccccc2Cl)cc1,active: 1.2 µM,
CC(=O)c1sc(N/N=C/c2cccc(O)c2)nc1C,active: 9.53 µM,
COC(=O)COc1cccc(NC(=O)c2cccc(C)c2)c1,"inconclusive: 26.9 µM [inhibitor, partial curve]",
COc1ccc(CCn2c(C3CCCCC3)nc3c(c(=O)c4ccccc4n3C)c2=O)cc1,,inactive: -0.986%
Cc1cc(C)c([N+](=O)[O-])cc1-c1ccc(/C=N/c2c(-c3ccco3)nc3ccccn23)o1,"inconclusive: 30.1 µM [inhibitor, single point]",
O=C(NCC(O)c1ccccc1)c1ccc(Cl)c(S(=O)(=O)N2CCCC2)c1 (centres undefined),"inconclusive: 23.9 µM [inhibitor, partial curve, poor fit]",
Cc1ccc(Nc2c(-c3ccc(N4CCOCC4)cc3)nc3ccc(Cl)cn23)cc1,"inconclusive: 10.7 µM [inhibitor, partial curve]",
COc1ccc(-c2csc(-n3ncc(-c4cccs4)c3N)n2)cc1,active: 4.26 µM,
CC(=O)c1ccc(NC(=O)/C=C/c2ccc(C)o2)cc1,active: 7.57 µM,
O=C(NN=C1CCCCCC1)c1c[nH]c2ccccc12,active: 12 µM,

SMILES,Potency,"activity change, negative = inhibition"
O=C(c1cc(S(=O)(=O)N2CCN(c3ccccc3)CC2)ccc1Cl)N1CCCCCCC1,,inactive: 0.757%
COc1cccc(C(=O)Nc2ccc(-c3nc4ccc(C)cc4s3)cc2)c1OC,,inactive: -0.616%
COc1cnc(SCc2ccc(Cl)cc2)nc1Cl,"inconclusive: 26.9 µM [inhibitor, partial curve, poor fit]",
O=C(CSc1nc2c([nH]c3ccccc32)c(=O)n1-c1cccc(C(F)(F)F)c1)N1CCCC1,,inactive: 1.63%
Cc1nnc(SC(C(=O)Nc2cc(Cl)cc(Cl)c2)c2ccccc2)[nH]c1=O (centres undefined),"inconclusive: 21.3 µM [inhibitor, single point]",
C/C(=N\Nc1nc(-c2ccccc2O)nc2ccccc12)c1ccccc1,"inconclusive: 0.953 µM [inhibitor, full curve]",
CN(/N=C/c1ccccc1O)C(=S)c1ccccc1,"inconclusive: 23.9 µM [inhibitor, partial curve]",
O=C1c2ccccc2C(=O)c2c1ccc(C(=O)N1CCCCC1)c2NCCO,"inconclusive: 37.9 µM [inhibitor, partial curve, poor fit]",
COc1ccc(NC(=O)c2cc(S(=O)(=O)Nc3ccc(OC)cc3)cs2)cc1,"inconclusive: 21.3 µM [inhibitor, partial curve, poor fit]",
CC1CCN(C(=O)Oc2ccccc2)CC1,"inconclusive: 23.9 µM [inhibitor, partial curve, poor fit]",
CC1CCC(C(=O)c2c(O)c3ccccc3oc2=O)CC1 (centres undefined),"inconclusive: 37.9 µM [inhibitor, partial curve, poor fit]",
CCC1(NC(C)=O)CC2CC1CC2NC(C)=O (centres undefined),,inactive: 6.93%
Cc1ccc(-c2ccc(SCC(=O)Nc3ccc4c(c3)OCCO4)nn2)cc1,active: 1.9 µM,
CCCCCCCCC1=NCCc2c1[nH]c1ccccc21,,inactive: -11.3%
CCc1ccc(OCC(=O)N/N=C2\CC(=O)c3ccccc32)cc1,active: 12 µM,
O=C(O)c1cccc(NC(=O)c2cccc(S(=O)(=O)Nc3cccc(F)c3)c2)c1,"inconclusive: 26.9 µM [inhibitor, partial curve]",
O=S(=O)(Nc1ccc(-c2ccc(N3CCCC3)nn2)cc1)c1ccccc1Cl,"inconclusive: 26.9 µM [inhibitor, partial curve]",
CCN(c1ccccc1)c1nc2nonc2nc1NCCO,,inactive: 2.26%
COc1cc(-c2csc(N3CCOCC3)n2)cc(OC)c1OC,,inactive: -10.1%
O=C(NCc1ccccc1)c1cccc(COc2ccc(Cl)cc2)c1,active: 16.9 µM,
O=C(CN1CCCCCC1)Nc1ccccc1OC(F)F,,inactive: -1.06%
O=C(O)c1ccc(NC(=O)c2ccc(Cl)cc2)c(NC(=O)c2ccc(Cl)cc2)c1,"inconclusive: 37.9 µM [inhibitor, partial curve, poor fit]",
O=C(Nc1ccc2c(c1)OCCO2)NC1(C(F)(F)F)Oc2ccccc2O1,"inconclusive: 23.9 µM [inhibitor, single point]",
COc1cc(OC)c(NC(=O)Nc2sc3nc4n(c(=O)c3c2C)CCC(C)CC4)cc1Cl (centres undefined),,inactive: 5.01%
Cc1cc(C(=O)Nc2ccccc2[N+](=O)[O-])cs1,"inconclusive: 37.9 µM [inhibitor, partial curve, poor fit]",

SMILES,Potency,"activity change, negative = inhibition"
Cc1nc2sc(C(=O)c3ccccc3)c(N)c2c2c1CCCC2,active: 10.7 µM,
CC(=O)N/C(N)=N/c1nc2cc(C)ccc2o1,active: 5.36 µM,
O=C(c1ccco1)N1CCN(c2ncnc3c2cnn3-c2ccccc2)CC1,"inconclusive: 30.1 µM [inhibitor, single point]",
NC(=O)c1ccccc1NC(=S)NC(=O)c1ccc(Br)o1,"inconclusive: 21.3 µM [inhibitor, single point]",
Cc1ccc2nc(SCC(=O)Nc3cccc(Cl)c3)nc(=O)n2c1,"inconclusive: 30.1 µM [inhibitor, partial curve, poor fit]",
N#CCSc1nc(-c2ccccc2)nc2ccccc12,"inconclusive: 37.9 µM [inhibitor, partial curve, poor fit]",
CCN(/C(N)=N/c1nc(C)cc(C)n1)c1ccccc1,"inconclusive: 26.9 µM [inhibitor, single point]",
Cc1ccc(NC(=O)C2CCN(c3ncccn3)CC2)cc1F,,inactive: -10.3%
O=C(CC(Nc1cccc(Cl)c1Cl)C(=O)O)c1ccccc1 (centres undefined),"inconclusive: 37.9 µM [inhibitor, single point]",
Cc1cc2c(NC(=O)Nc3ccc(F)cc3)cccc2nn1,"inconclusive: 42.6 µM [inhibitor, partial curve, poor fit]",
COc1ccc(N=C(c2ccccc2)c2c(C)[nH]n(-c3ccccc3)c2=O)c(OC)c1,,inactive: -0.0597%
COc1cccc(C2=NOC(C(=O)Nc3cc(OC)c(OC)c(OC)c3)C2)c1 (centres undefined),,inactive: 1.73%
Cc1ccc(C(CC(=O)c2ccc(Cl)cc2)C(=O)O)cc1 (centres undefined),"inconclusive: 19 µM [inhibitor, partial curve]",
COc1cc(OC)c(NC(=O)CSCc2nc(-c3ccc(OC)c(OC)c3)no2)cc1Cl,,inactive: 5.89%
CCN(CC(=O)NCc1ccncc1)S(=O)(=O)c1cc(Cl)ccc1Cl,,inactive: 0.286%
CCc1ccccc1NC(=S)N(CCN(C)C)Cc1cccs1,,inactive: -1.28%
Cc1nn(CCc2nn[nH]n2)c2nc(-c3ccc(C4CCCCC4)cc3)cc(C(F)(F)F)c12,"inconclusive: 26.9 µM [inhibitor, single point]",
COc1cccc(C2=CC(=O)C[C@H](c3ccc(Cl)cc3)C2)c1,,inactive: -11.4%
C=CCOC(=O)C(C#N)c1nc2ccccc2nc1N1CCN(c2ccccc2OCC)CC1 (centres undefined),,inactive: 3.07%
Cc1cc(C)c(C)c(S(=O)(=O)N2CCC(C(=O)N3CCCCCCC3)CC2)c1C,,inactive: -0.625%
O=C(c1ccco1)N1N=C(c2ccc(Br)cc2)CC1c1ccco1 (centres undefined),"inconclusive: 3.79 µM [inhibitor, partial curve, poor fit]",
CC(C)N1CCc2c(sc(NC(=S)NC(=O)c3ccccc3)c2C#N)C1,"inconclusive: 33.8 µM [inhibitor, partial curve, poor fit]",
c1ccc(-c2cn3c(n2)SCC3)cc1,"inconclusive: 23.9 µM [inhibitor, partial curve, poor fit]",
O=c1[nH]c(CSc2nc3ccccc3s2)nc2ccccc12,"inconclusive: 12 µM [inhibitor, partial curve]",
